Assay [1] concerns the target HAX1 (endogenous) (human (endogenous in HEK293T)) (UniProt O00165). The assay is described as follows: co-IP; endogenous proteins; HEK293T cells treated with DMSO or oligomycin with or without TAK-243 (1 h); lysates captured with magnetic beads conjugated with IgG or anti-HAX1 antibodies, immunoblot.
A further assay addresses GFP-LSM14A (human) (UniProt Q8ND56). The assay is described as follows: co-IP; HEK293T cells transfected with tagged proteins (Flag-HAX1 + GFP-TRIM23; GFP-TRIM23 + flag-DCP1A, flag-EDC3 or flag-NBDY; GFP-LSM14A + flag-TRIM23; GFP-TRIM23 alone); lysis buffer 50 mM Tris-Cl pH 7.4, 150 mM NaCl, 1% Triton X-100, 1 mM DTT; IP with indicated antibodies or control IgG, western blot. In general terms: Immunoblotting shows a protein as a band on a membrane.

By UniProt entry, the sequences of proteins in these tests, tags left out.
UniProt O00165: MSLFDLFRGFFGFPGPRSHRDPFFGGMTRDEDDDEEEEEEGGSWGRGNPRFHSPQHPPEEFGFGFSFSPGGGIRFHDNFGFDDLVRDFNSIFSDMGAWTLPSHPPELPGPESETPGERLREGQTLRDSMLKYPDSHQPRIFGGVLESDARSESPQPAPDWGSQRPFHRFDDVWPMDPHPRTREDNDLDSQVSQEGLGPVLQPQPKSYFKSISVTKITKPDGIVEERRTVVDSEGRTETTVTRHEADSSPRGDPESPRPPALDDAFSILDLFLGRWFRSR
UniProt Q8ND56: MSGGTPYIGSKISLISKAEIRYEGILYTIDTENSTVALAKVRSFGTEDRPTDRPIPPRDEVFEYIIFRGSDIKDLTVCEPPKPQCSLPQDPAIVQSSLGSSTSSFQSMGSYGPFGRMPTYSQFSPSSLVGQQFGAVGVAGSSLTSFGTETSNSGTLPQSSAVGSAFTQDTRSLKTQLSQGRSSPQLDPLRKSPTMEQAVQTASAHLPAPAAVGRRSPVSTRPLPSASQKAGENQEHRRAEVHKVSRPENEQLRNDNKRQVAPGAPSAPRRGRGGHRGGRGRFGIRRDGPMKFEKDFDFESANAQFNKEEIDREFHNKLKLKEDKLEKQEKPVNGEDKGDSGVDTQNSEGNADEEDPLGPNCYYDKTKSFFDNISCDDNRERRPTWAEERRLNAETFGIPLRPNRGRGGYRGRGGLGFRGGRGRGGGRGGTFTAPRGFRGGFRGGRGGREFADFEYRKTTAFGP
UniProt P26196: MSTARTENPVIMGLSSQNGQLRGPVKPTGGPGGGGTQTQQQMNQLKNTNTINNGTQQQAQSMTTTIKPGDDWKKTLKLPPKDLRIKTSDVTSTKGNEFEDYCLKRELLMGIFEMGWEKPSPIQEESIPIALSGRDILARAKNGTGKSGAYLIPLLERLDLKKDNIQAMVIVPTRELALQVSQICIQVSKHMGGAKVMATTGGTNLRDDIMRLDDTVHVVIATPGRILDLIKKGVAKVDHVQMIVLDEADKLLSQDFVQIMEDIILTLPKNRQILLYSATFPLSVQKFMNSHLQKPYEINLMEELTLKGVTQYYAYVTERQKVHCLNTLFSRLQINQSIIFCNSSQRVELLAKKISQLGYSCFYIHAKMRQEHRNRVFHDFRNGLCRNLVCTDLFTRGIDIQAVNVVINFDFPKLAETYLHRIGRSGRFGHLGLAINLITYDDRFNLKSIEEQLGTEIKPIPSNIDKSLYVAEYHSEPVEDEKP

For a further assay, the target named is T1, Flag-EDC3 (human) (UniProt Q96F86).
T1 sequence: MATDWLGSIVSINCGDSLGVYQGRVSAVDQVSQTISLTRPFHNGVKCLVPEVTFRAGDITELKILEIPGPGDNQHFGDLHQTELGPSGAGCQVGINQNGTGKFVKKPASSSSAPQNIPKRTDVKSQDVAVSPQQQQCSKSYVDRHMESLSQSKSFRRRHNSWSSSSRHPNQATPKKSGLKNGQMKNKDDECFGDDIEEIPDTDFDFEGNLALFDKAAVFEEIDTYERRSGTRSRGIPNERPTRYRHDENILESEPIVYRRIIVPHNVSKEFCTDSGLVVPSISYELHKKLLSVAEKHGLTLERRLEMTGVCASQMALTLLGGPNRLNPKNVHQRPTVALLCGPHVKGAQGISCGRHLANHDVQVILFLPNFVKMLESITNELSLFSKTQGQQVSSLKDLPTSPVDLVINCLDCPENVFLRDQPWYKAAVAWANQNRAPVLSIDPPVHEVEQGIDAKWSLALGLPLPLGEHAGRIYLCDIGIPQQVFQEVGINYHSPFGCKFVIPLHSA
The assay is described as above.

The target in assay [2] is DDX6 (endogenous) (human (endogenous in HEK293T)) (UniProt P26196). Described as above.
Another assay has as its target T2, Flag-NBDY (human).
T2 sequence: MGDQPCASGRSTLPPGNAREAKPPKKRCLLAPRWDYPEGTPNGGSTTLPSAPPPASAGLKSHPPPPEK
Described as above.

The next assay has as its target T3, Flag-DCP1A (human) (UniProt Q9NPI6).
T3 sequence: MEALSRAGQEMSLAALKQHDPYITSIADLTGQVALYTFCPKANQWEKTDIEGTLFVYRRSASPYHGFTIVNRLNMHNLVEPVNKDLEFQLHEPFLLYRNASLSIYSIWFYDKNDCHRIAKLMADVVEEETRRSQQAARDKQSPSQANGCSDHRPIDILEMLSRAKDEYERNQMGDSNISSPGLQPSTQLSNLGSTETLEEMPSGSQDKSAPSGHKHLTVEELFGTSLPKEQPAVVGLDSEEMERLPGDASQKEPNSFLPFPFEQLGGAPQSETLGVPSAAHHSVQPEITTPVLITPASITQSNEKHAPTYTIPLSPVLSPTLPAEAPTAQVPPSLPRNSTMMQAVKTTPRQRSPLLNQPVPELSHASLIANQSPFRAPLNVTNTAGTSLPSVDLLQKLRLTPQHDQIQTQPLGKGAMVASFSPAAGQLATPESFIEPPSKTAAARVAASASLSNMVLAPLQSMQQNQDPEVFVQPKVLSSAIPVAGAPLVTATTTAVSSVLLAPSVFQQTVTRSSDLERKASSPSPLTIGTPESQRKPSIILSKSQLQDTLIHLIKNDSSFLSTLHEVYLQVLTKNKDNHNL
The description is as above.

No constants are given. Whether binding was seen depends on the method and setting. In cells and extracts the contact can be indirect. Some binding calls cover weakened binding; strength is not graded here. For part of these data: Tags and fused reporters may be left off the sequences shown.

With “LSM14A (endogenous) (from UniProt Q8ND56 1-463)”, the binding result in assay [1] is listed as “binds”.

B1: Flag-TRIM23 (enzyme, UniProt P36406 1-574)
chain: MATLVVNKLGAGVDSGRQGSRGTAVVKVLECGVCEDVFSLQGDKVPRLLLCGHTVCHDCLTRLPLHGRAIRCPFDRQVTDLGDSGVWGLKKNFALLELLERLQNGPIGQYGAAEESIGISGESIIRCDEDEAHLASVYCTVCATHLCSECSQVTHSTKTLAKHRRVPLADKPHEKTMCSQHQVHAIEFVCLEEGCQTSPLMCCVCKEYGKHQGHKHSVLEPEANQIRASILDMAHCIRTFTEEISDYSRKLVGIVQHIEGGEQIVEDGIGMAHTEHVPGTAENARSCIRAYFYDLHETLCRQEEMALSVVDAHVREKLIWLRQQQEDMTILLSEVSAACLHCEKTLQQDDCRVVLAKQEITRLLETLQKQQQQFTEVADHIQLDASIPVTFTKDNRVHIGPKMEIRVVTLGLDGAGKTTILFKLKQDEFMQPIPTIGFNVETVEYKNLKFTIWDVGGKHKLRPLWKHYYLNTQAVVFVVDSSHRDRISEAHSELAKLLTEKELRDALLLIFANKQDVAGALSVEEITELLSLHKLCCGRSWYIQGCDARSGMGLYEGLDWLSRQLVAAGVLDVA
As to B1, the binding entry in the assay with GFP-LSM14A (human) is listed as “no binding”.

B2: GFP-TRIM23 (tripartite motif containing 23), full length (enzyme, UniProt P36406 1-574)
chain: B1 chain
Turning to B2, the binding entry (in the assay with Flag-EDC3 (human); in assay [2]; in the assay with Flag-NBDY (human); in the assay with Flag-DCP1A (human)) was “no binding” in each case.

The values are drawn from article PMC11217408.
